Here are results for 48 molecules from PubChem BioAssay AID1508623 (National Center for Advancing Translational Sciences (NCATS), 2021).

Hit rate of the full screen: of about 48,000 compounds, about 450 (0.94%) were called active. Roughly 19% stayed inconclusive and do not appear here. The call rests on the fitted dose curve; in most records, active means well fitted inhibition curve with a large enough effect; inconclusive means small, poorly fitted or top-dose-only effect; inactive means no such curve, though single readings can be large or run the other way. The list shows a part of the results.

The nature of this experiment: Primary qHTS for Identification of Small Molecule Inhibitors of Huntingtin Promoter Activity. Further: nearly all actives have a fitted effect of over 50% in size. Conditions: HEK293 HTT promoter firefly luciferase reporter (activity 0% = vehicle and -100% = no light), 24 h; series mostly up to 57.5 µM; activity change, negative = inhibition: at the top concentration. An outline of the steps: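 Quantitative HTS used concentration series of up to 57.5 uM final on HEK293 luciferase reporter cells, 24 h at 37 degrees C. Readout was Dual-Glo firefly luminescence.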
In the case of `COCCCNC(=O)CN1C(=O)COc2ccc(S(=O)(=O)N3CCCCCC3)cc21`, the “activity change, negative = inhibition” value was inactive: -15.6%.
To `Cc1cccc(-n2cc(-c3ccccc3)c3c(NC(C)C)ncnc32)c1` belongs inactive: -21.9%; to `Cc1ccc(NC(=O)CSc2nc(-c3ccc(F)cc3)nc3c2Cc2c(CO)cnc(C)c2O3)cc1C`, inactive: -14.4%.
To `COC(=O)c1ccccc1NC(=O)CN(c1ccccc1OC)S(C)(=O)=O` belongs inactive: -13.9%.
To `CN(Cc1ccccc1)C(=O)CCS(=O)(=O)c1cc(Br)cc2c1N(C(=O)C1CC1)CC2` belongs inactive: -15.4%; to `O=C(COc1ccccc1F)Nc1ccccc1OCc1cc(=O)n2ccccc2n1`, inactive: 5.15%.
On to `CN1C(CCl)Nc2cc(Cl)c(S(N)(=O)=O)cc2S1(=O)=O` (stereo not drawn), for which the “activity change, negative = inhibition” value was inactive: 3.29%.
`CC1CCN(C(=O)Cn2cc(SCc3ccccc3)c3ccccc32)CC1`: the “activity change, negative = inhibition” value was inactive: -15.5%.
To `CCCc1nnc(N2C(=O)c3oc4ccc(F)cc4c(=O)c3C2c2ccc(C(=O)OC)cc2)s1` (stereo not drawn) belongs inactive: 4.74%; to `COc1ccccc1OCC(=O)Nc1nnc2n1CCS2`, inactive: 13.5%; to `O=C(C1CCC1)N1CCc2cc(S(=O)(=O)N3CCN(c4ccccc4)CC3)ccc21`, inactive: -17.3%.
With `CCOc1ccc(-n2cc(C(=O)Nc3ccccc3OCC)c3cc(OC)c(OC)cc3c2=O)cc1`, the “activity change, negative = inhibition” value is inactive: -24.9%.
To `COc1cc2ccccc2cc1C(=O)N1CCN(c2nc3c(C)cc(C)cc3s2)CC1` belongs inactive: -15.1%; to `CC1CCN(C(=O)Cn2cc(SCc3cccc(F)c3)c3ccccc32)CC1`, inactive: -17.4%.
`CCc1ccccc1NC(=O)N1CCN(c2nnc(C)c3c(C)n(-c4ccccc4)nc23)CC1`: the “activity change, negative = inhibition” value is inactive: -9.74%.
To `Cc1ccc2nc(-c3ccccc3O)c(Nc3ccccc3C)n2c1` belongs inactive: -17.8%; to `O=c1cc(-c2ccccc2)nc(SCc2nc(-c3ccc(C(F)(F)F)cc3)no2)[nH]1`, inactive: 0.78%.
For `CCc1cccc(N(C)C(N)=Nc2cccc3ccccc23)c1`, the “activity change, negative = inhibition” value is inactive: -12.6%.
To `CC(C)(C)c1ccc(-c2nc3cc(NC(=O)c4cc5ccccc5o4)ccc3o2)cc1` belongs inactive: -33.5%; to `CCCOc1ccc(-c2nc3ccccc3c(=O)o2)cc1`, inactive: 65.6%; to `COc1ccc(NC(=O)NC2COc3ccccc3C2)c(OC)c1` (stereo not drawn), inactive: 0.405%.
To `CC(C)c1ccc(NC(=O)C2CCN(S(=O)(=O)c3cccc4nsnc34)CC2)cc1` belongs inactive: -12%; to `O=C(Cn1ccn(-c2cccc(Cl)c2)c(=O)c1=O)NCCc1ccccc1`, inactive: -14.1%; to `CC(=O)NS(=O)(=O)c1ccc(N)cc1`, inactive: -2.51%.
To `Cc1c(C(=O)Nc2nc(-c3ccc(F)cc3)ns2)oc2ccc(Br)cc12` belongs inactive: -1.89%.
Regarding `CN(CC(=O)Nc1cccc(Cl)c1)S(=O)(=O)c1ccc2[nH]c3c(c2c1)CCCC3`, the “activity change, negative = inhibition” value is inactive: -4.27%.
To `COc1ccc2c(c1)cc(CNc1ccc(OC)c(OC)c1)c(=O)n2CC(=O)Nc1ccc(F)cc1` belongs inactive: -28.4%; to `Cc1c(C(=O)Nc2ccc(F)c(F)c2)oc2ccc(S(=O)(=O)N3CCCCC3)cc12`, inactive: -31.5%; to `Cc1cn([C@H]2C=C[C@@H](CO)O2)c(=O)[nH]c1=O`, “inactive”.
To `O=S(=O)(NCC(c1ccco1)S(=O)(=O)c1ccccc1)c1ccccc1` (stereo not drawn) belongs inactive: -15.3%; to `COc1ccc(N2CCN(C(=O)CCc3c(C)nc4c(-c5ccccc5)c(C)nn4c3C)CC2)cc1`, inactive: -29.7%; to `COc1ccccc1CNC(=O)CCCCn1c(=O)c2ccccc2n(Cc2c(C)cc(C)cc2C)c1=O`, inactive: 2.81%.
Take `CC1=C(C(N)=O)C(c2ccc(C(C)C)cc2)n2nc(SCc3ccccc3)nc2N1` (stereo not drawn): the “activity change, negative = inhibition” value is inactive: -6.6%.
To `Cc1cc(C)n2nc(SCC(=O)Nc3cc(Cl)ccc3C)nc2n1` belongs inactive: -8.74%; to `COC(=O)c1ccc(NC(=O)CCc2c(C)nc3c(c(C)nn3-c3ccc(C)cc3)c2C)cc1`, inactive: -12.7%.
To `COc1ccc(CCNc2nc(-c3ccc(C)cc3)cc(C(F)F)n2)cc1OC` belongs inactive: -1.02%; to `Cc1cccc(NC(=O)c2oc3c(c2C)-c2[nH]ncc2CC3)c1C`, inactive: 36.6%.
To `Oc1c(C(c2ccccc2F)N2CCOCC2)sc2nc(-c3ccco3)nn12` (stereo not drawn) belongs inactive: 19.9%.
Turning to `Cc1nc2c(C(=O)NCc3ccccc3Cl)c[nH]n2c(=O)c1Cc1cccc(Cl)c1`, the “activity change, negative = inhibition” value is inactive: -20.9%.
To `CC(NC(=O)CSc1n[nH]c(-c2ccccc2Cl)n1)c1nc2ccccc2n1C` (stereo not drawn) belongs inactive: -8.02%.
To `CCOc1ccc(NC(=O)CN2CCN(Cc3ccccc3)S2(=O)=O)cc1` belongs inactive: -13.8%.
`Cc1cc(=O)[nH]c2nnc(SCc3ccc(Cl)c(Cl)c3)n12`: the “activity change, negative = inhibition” value is inactive: -13.1%.
To `CCCCN(C)CCCNC(=O)CN1C(=O)COc2ccc(S(=O)(=O)N3CCC(C)CC3)cc21` belongs inactive: -13.1%; to `CCOC(=O)N1CCc2c(sc(NCc3sccc3C)c2C(=O)Nc2cc(OC)ccc2OC)C1`, inactive: -18.7%.
To `CCOc1ccccc1-n1c(C)nc2cc(C(=O)O)ccc21` belongs inactive: -0.99%; to `N#C/C(=C\c1ccc(F)cc1)C(=O)NCC1CCCO1` (stereo not drawn), inactive: 1.77%; to `Cn1cnc(S(=O)(=O)N2CCCC(C(=O)NCc3ccccc3Cl)C2)c1` (stereo not drawn), inactive: -19.9%.
To `Cc1ccc(CCNC(=O)C(CC(C)C)NS(=O)(=O)c2ccc3c(c2)oc(=O)n3C)cc1` (stereo not drawn) belongs inactive: -6.72%.
